Reference: article PMC4336329 (PLoS ONE, 2015)
The campaign covered roughly 310,000 compounds. About 2,200 (0.71%) showed an effect of 50% or more. Effects have a minus sign here. Some of the results follow.

Biological target: human ether-à-go-go-related gene (hERG) potassium channel (human, UniProt Q12809)
Test: primary screen, population patch clamp on CHO cells stably expressing hERG

Chain of human ether-à-go-go-related gene (hERG) potassium channel (Q12809 whole entry, looked up): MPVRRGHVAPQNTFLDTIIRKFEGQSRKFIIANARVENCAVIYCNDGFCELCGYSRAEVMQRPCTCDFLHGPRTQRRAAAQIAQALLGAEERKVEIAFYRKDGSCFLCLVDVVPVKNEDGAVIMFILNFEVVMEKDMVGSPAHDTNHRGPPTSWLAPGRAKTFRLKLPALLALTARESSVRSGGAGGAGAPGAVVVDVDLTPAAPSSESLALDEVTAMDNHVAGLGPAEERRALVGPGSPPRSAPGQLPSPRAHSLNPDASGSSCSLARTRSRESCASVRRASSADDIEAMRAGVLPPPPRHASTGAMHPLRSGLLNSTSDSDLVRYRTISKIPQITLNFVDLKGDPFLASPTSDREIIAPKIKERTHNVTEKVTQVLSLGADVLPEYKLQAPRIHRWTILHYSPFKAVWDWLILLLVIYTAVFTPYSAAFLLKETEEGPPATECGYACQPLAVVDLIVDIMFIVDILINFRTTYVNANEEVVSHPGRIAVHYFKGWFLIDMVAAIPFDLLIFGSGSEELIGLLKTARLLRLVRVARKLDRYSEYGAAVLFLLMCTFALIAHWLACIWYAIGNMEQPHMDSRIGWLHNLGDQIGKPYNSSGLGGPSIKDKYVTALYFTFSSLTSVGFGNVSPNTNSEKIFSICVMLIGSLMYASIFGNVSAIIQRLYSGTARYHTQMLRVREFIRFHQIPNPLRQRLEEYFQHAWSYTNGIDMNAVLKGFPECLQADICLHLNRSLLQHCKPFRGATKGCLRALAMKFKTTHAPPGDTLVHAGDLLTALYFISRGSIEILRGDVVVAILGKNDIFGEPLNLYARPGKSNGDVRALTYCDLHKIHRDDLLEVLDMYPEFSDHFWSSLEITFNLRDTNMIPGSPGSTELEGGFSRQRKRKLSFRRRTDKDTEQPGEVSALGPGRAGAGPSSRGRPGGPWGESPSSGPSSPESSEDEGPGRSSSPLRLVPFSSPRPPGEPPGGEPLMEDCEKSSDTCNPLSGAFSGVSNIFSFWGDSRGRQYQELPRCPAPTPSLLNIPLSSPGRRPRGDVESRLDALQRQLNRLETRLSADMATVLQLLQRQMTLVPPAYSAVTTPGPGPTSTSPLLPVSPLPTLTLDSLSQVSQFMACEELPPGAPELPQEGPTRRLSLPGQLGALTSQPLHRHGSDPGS

| SMILES | hERG current change (%, negative = inhibition) at 1uM [%] |
| --- | --- |
| S=c1[nH]nc(-c2n[nH]c3c2CCC3)n1/N=C/C=C/c1ccco1 | 26.2 |
| O=C1C2C(C(=O)N1CCN1CCN(Cc3ccc([N+](=O)[O-])cc3)CC1)[C@H]1C=C[C@@H]2C1 (some centres unmarked) | -5.11 |
| Cc1ccc(C(=O)C[n+]2ccc3ccccc3c2)cc1.[Br-] | -1.86 |
| CCC(=O)N=C1SC2CS(=O)(=O)CC2N1c1cccc(OC)c1 (centres unmarked) | 4.5 |
| Cc1cc(C)c2nc(NNC(=O)c3ccc(S(=O)(=O)N4CCc5ccccc5C4)cc3)sc2c1 | 6.7 |
| O=C(CSc1ccc2ccccc2c1)N1CCN(c2ccc(O)cc2)CC1 | 8.88 |
| O=C(Cc1nnc(NC(=O)Nc2ccccc2)s1)Nc1ccccc1 | 14 |
| COc1ccc(Nc2nc(-c3ccccc3O)nc3ccccc23)cc1 | 13.8 |
| CCn1cc(Br)c(C(=O)Nc2ccc(OC)cc2)n1 | 13.1 |
| O=C(COc1ccc(Cl)cc1Cl)c1ccc[nH]1 | -1.33 |
| CCn1c(N)c(C(=O)NCc2ccc3c(c2)OCO3)sc1=S | 15.4 |
| COc1ccc(NC(=O)C2COc3ccccc3O2)cc1 (centres unmarked) | 6.61 |
| O=C(OCC(=O)N1CCCC1)c1cc(F)c(F)cc1Cl | 15.3 |
| Cc1ccc(N2CCN(C(=O)N3CCOCC3)CC2)cc1C | 10.9 |
| CN(C)CC(O)COC(c1ccc(Cl)cc1)c1ccc(Cl)cc1 (centres unmarked) | -48.9 |
| CC(C)(C)n1ncc2c(=O)n(CC(=O)Nc3ccc4c(c3)OCCO4)cnc21 | 9.32 |
| CCN(CC)S(=O)(=O)c1ccc(C)c(NC(=S)N2CCN(c3ccccn3)CC2)c1 | -31.5 |
| CCC(Sc1nc2ccccc2c(=O)n1CCN1CCOCC1)C(=O)NCc1cccnc1 (centres unmarked) | 1.23 |
| CCCCN1C(=S)NC[C@@H]1c1ccccc1 | 5.87 |
| O=C(O)c1ccc(-c2noc(-c3ccccc3Cl)n2)cc1 | 7.03 |
| CN(C)CCn1c(=O)n(-c2cccc(Cl)c2)c(=O)c2c3c(sc21)CCCCC3 | 6.87 |
| O=C1Cc2ccccc2C(c2ccc(Br)cc2)N1 (centres unmarked) | 6.61 |
| COc1ccc(CCNC(=O)NC(C(F)(F)F)C(F)(F)F)cc1OC | 5.68 |

| SMILES | hERG current change (%, negative = inhibition) at 1uM [%] |
| --- | --- |
| CC(C)c1ccc(/C=N/NC(=O)CN(c2cccc(Cl)c2Cl)S(C)(=O)=O)cc1 | 18.2 |
| COc1cccc(C(=O)Nc2ccc3[nH]ncc3c2)c1 | -26.3 |
| COc1cc(C(=O)NCC(=O)N/N=C(\C)Cc2ccccc2)cc(OC)c1OC | 17.1 |
| COc1cccc(-c2nn3c(-c4ccco4)nnc3s2)c1 | 1.58 |
| Cc1occc1C(=O)NNC(=O)Nc1ccc([N+](=O)[O-])cc1 | -7.42 |
| Cc1ncc([N+](=O)[O-])n1CC(=O)Nc1ccc(F)cc1F | 16.3 |
| COc1ccc(C2=NN3C(C2)c2ccccc2OC3c2cccs2)cc1 (centres unmarked) | 5.6 |
| Cc1ccc(NC(=O)c2c(F)cccc2Cl)cc1S(=O)(=O)N1CCOCC1 | 16.2 |
| Cc1ccc(N(C(=O)c2ccc3c(c2)OCO3)C2C=CS(=O)(=O)C2)cc1C (centres unmarked) | 8.37 |
| Cc1coc2c(C)c3oc(=O)c(CCC(=O)N(C)CC(=O)O)c(C)c3cc12 | 15.5 |
| CCC(C)N1C(=O)C2C(C(=O)Nc3cccc(OC)c3)C3C=CC2(O3)C1C(=O)NC1CCCCC1C (centres unmarked) | 0.648 |
| O=C(CSCc1ccc(Cl)cc1)NN=C1CCCCCC1 | 5.97 |
| CCOC(=O)c1c(S(=O)(=O)NCc2ccc(C)o2)c(C)n(C)c1C | -0.736 |
| N/C(=N\OC(=O)CSc1ccccc1)c1ccc([N+](=O)[O-])cc1 | 3.22 |
| Cc1cc(Br)ccc1NC(=O)CN1C(=O)C2CC=CCC2C1=O (centres unmarked) | 2.16 |
| C[N+](C)(CC#N)C/C=C\c1ccccc1.[Cl-] | 7.24 |
| O=C(O)C1Cc2ccccc2CN1C(=O)CSc1nnc2ccccn12 (centres unmarked) | 8.7 |
| O=S(=O)(c1ccccc1)N1CC=C(c2ccccc2)CC1 | 3.79 |
| Cc1ccc(NC(=O)C2(c3ccccc3)CCOCC2)c([N+](=O)[O-])c1 | 4.67 |
| COc1cc(C(=O)NCCc2ccc(F)cc2)ccc1OCC(=O)N1CCOCC1 | 7.97 |
| CCCCC(C(=O)NCCC(C)C)N(CCCN1CCOCC1)C(=O)c1snc(C(N)=O)c1N (centres unmarked) | -17.5 |
| CC(C)c1nnc(SCC(=O)NC(C)(C)C)n1C | 11.6 |
| Cn1c(SCC(=O)c2c(N)n(C)c(=O)n(C)c2=O)nnc1-c1ccccc1F | 12.8 |

| SMILES | hERG current change (%, negative = inhibition) at 1uM [%] |
| --- | --- |
| CCCC(=O)N1CCN(c2ccc([N+](=O)[O-])c(NC(C)c3ccccc3)c2)CC1 (centres unmarked) | 3.93 |
| O=C1c2ccccc2-c2c1cccc2C(=O)N1CCCCCC1 | 7.59 |
| Cc1nnc2n(c1=O)C(CS(=O)(=O)c1ccccc1)CS2 (centres unmarked) | 5.67 |
| Cc1ccc[n+](CC(=O)c2ccc(Cl)cc2)c1.[Cl-] | 12.3 |
| CCOc1ccc(N2C(=O)c3ccc(C(=O)OCC(=O)N(CC)C4CCS(=O)(=O)C4)cc3C2=O)cc1 (centres unmarked) | -2.6 |
| CCOc1ccccc1C(=O)Nc1cc(OC)ccc1OC | -8.18 |
| CC(C)Cn1c(-c2cccnc2)nc2c1c(=O)[nH]c(=O)n2CC(C)C | -0.85 |
| CCc1ccc2[nH]c(=O)c(CN(CCCN3CCOCC3)C(=O)Nc3ccc(F)cc3)cc2c1 | -48.2 |
| Cc1ccc2scc(CN3CCCC3)c2c1.Cl | 8.55 |
| Cc1ccc(CSc2nc(N)cc(N)n2)cc1 | 17.2 |
| Cc1ccc2nc(C3CCN(CC(=O)N4CCCCCC4)CC3)[nH]c2c1 | 9.46 |
| Cc1ccccc1-c1nnc(SCC(=O)NCc2ccc3c(c2)OCO3)n1C | 6.31 |
| CCOC(=O)Cc1csc(NC(=S)NC(=O)c2ccc(Cl)cc2)n1 | 18.5 |
| CCOC(=O)CCNC(=O)Nc1cc2nc(C)n(Cc3cccc(Cl)c3)c2nc1C | 2.57 |
| CC(C(=O)NC1CCCc2ccccc21)N1CCN(Cc2ccc3c(c2)OCO3)CC1 (centres unmarked) | -11.9 |
| CC/C(=N/N=C(\CC)c1ccccc1)c1ccccc1 | 2.54 |
| Cc1nc(NC(=O)CSc2nnc(Cn3nnc4ccccc43)n2C)sc1C | 7.16 |
| O=C(CC1C(=O)NCCN1Cc1ccc(F)cc1)NCCCn1cccn1 (centres unmarked) | -7.68 |
| Cc1ccc(-n2c(Cc3cccs3)nnc2SCC(=O)OC(C)C)cc1 | -10.3 |
| O=C(CNC(=O)C1CCCCC1)OCC(=O)c1ccc(Cl)s1 | 4.86 |
| Cc1cc(Br)c(OCc2ccc(C(=O)N/N=C/c3ccc[nH]3)cc2)c(Br)c1 | 17.2 |
| O=C(CCN1CCCCC1)NNC(=O)C12CC3CC(CC(C3)C1)C2 | 18 |
| CC1=C/C(=C(\c2cc(C)c(O)c(Br)c2)c2ccccc2S(=O)(=O)O)C=C(Br)C1=O | 15.9 |

| SMILES | hERG current change (%, negative = inhibition) at 1uM [%] |
| --- | --- |
| COc1ccc(C(=O)N/N=C/c2ccc(OC)c(COc3ccc(F)cc3)c2)cc1 | 1.17 |
| Cn1c(N)c(C(=O)CNC2CCCCC2)c(=O)n(C)c1=O | 11.6 |
| CCCCC(=O)Nc1ccc2c(c1)nc1n2CCOC1 | 15.9 |
| CC(C)(C)NC(=O)CN1CCCN(C(=O)c2cccc(S(=O)(=O)N3CCc4ccccc43)c2)CC1 | 9.17 |
| CCOC(=O)N1CCC(NC(=O)c2ccc3c(=O)n4c(nc3c2)CCCC4)CC1 | 17.1 |
| Cn1c(=O)[nH]c(=O)c2[nH]c(NCCCN3CCOCC3)nc21 | 19.2 |
| Cc1ccccc1-c1noc(-c2ccccc2C(=O)O)n1 | -5.91 |
| CCOC(=O)CC1=CSC2=NS(=O)(=O)CCN12 | 2.8 |
| COc1cc(NC(=O)Cn2c(=O)n(CC3CCCO3)c(=O)c3ccccc32)cc(OC)c1 (centres unmarked) | 8.85 |
| CCC/C(=N\NC(=O)CCC(=O)NCc1ccccc1)c1ccccc1 | 16.8 |
| CCOC(=O)CNC(=O)Nc1cccc(Cl)c1C | 13.4 |
| COc1ccccc1OCC(=O)c1[nH]c(C)c(C(C)=O)c1C | 0.653 |
| COc1ccc(-c2nc3c(c(=O)c4ccccc4n3C)c(=O)n2Cc2ccccc2)cc1 | 13.5 |
| CC1=CC(=O)C=C(C)C1=NOC(=O)c1cccc([N+](=O)[O-])c1 | 5.05 |
| O=C(CN(C(=O)c1csnn1)c1ccc2c(c1)OCCO2)NCc1ccc(F)cc1 | -1.13 |
| COc1ccc(Cc2nnc(SCC(=O)NC(C)c3ccccc3)o2)cc1 (centres unmarked) | -1.25 |
| CC(=O)c1c(C)[nH]c(C(=O)Nc2cc(S(=O)(=O)N(C)C)ccc2C)c1C | 14 |
| CCOc1ccc(OCc2ccc(C(=O)N3CCc4ccccc4C3)o2)cc1 | 1.11 |
| S=c1[nH]nc2c3c4c(sc3ncn12)CCCC4 | 17.3 |
| CCc1nn(C(CC)C(=O)NCCc2ccc(OC)cc2OC)c(=O)c2cc3occc3n12 (centres unmarked) | -3.52 |
